{"source": "the supplement of paper PMC11417369", "note": "This is one part of the list."}
{"system": "PF3D7_0420300 AP2 domain 1 (GST-tagged)", "test": "gcPBM binding intensity (ln(normalized median fluorescence intensity)); higher = stronger DNA binding", "how_it_was_run": "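Binding intensity is the highest Masliner-normalised natural-log median intensity over replicate spots in either probe orientation. To obtain it, GST-tagged P. falciparum DNA-binding domains made in E. coli were incubated for 1 h on an Agilent 4 × 180k array of primer-extended double-stranded 36-bp intergenic genomic probes plus negative controls. Detection used Alexa488 anti-GST antibody with scanning at 488 nm.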"}
{"sequence": "AGAAAGTAAAGCTGTTGTACTATTATATATATTTTA [XGTACX_site8090]", "gcPBM binding intensity (ln)": 9.28}
{"sequence": "TAATGTAATACATATTGTACACATACATATATATTT [XGTACX_site7531]", "gcPBM binding intensity (ln)": 9.28}
{"sequence": "ATATATAATCATCACACATGCAGCCCTGATGAAAAA [TGCATGCA_site687]", "gcPBM binding intensity (ln)": 9.25}
{"sequence": "GGGTATACCAATATAACACACATATATCTATAATAT [CACACA_site6348]", "gcPBM binding intensity (ln)": 9.62}
{"sequence": "TATAAATTTTTATTTACATGCAGTTATTATTTCCAT [TGCATGCA_site41]", "gcPBM binding intensity (ln)": 9.24}
{"sequence": "AATAATAAATAAAAATGTACACATACATTTCTATCC [XGTACX_site7057]", "gcPBM binding intensity (ln)": 9.29}
{"sequence": "TATTAAAAGGTTAAAGCATGCATACATATATATGTT [TGCATGCA_site865]", "gcPBM binding intensity (ln)": 9.24}
{"sequence": "TTTTTGTTACCTATTGTGCACTTCATATAAATTAAA", "gcPBM binding intensity (ln)": 9.35}
{"sequence": "ATATATATATATATATGTACATATTTATATTGTAAA [XGTACX_site8878]", "gcPBM binding intensity (ln)": 9}
{"sequence": "TAATTTTTTAAATTTAAACACACATTTTGTATATGT [CACACA_site8479]", "gcPBM binding intensity (ln)": 9.28}
{"sequence": "TATATATATATATATTGTACGAACCTTTTTTTTTTT [XGTACX_site4169]", "gcPBM binding intensity (ln)": 9.25}
{"sequence": "TGATACGTATTTATTTCACACACGTTAAAAAAATAA [CACACA_site3914]", "gcPBM binding intensity (ln)": 9.08}
{"sequence": "CTAACACTAATTTTTTGTACACAATATGTAAATAAA [XGTACX_site6424]", "gcPBM binding intensity (ln)": 9.1}
{"sequence": "ATTTTTACATAGGAAGCATGCATATTTTAAAAATAA [TGCATGCA_site1046]", "gcPBM binding intensity (ln)": 9.01}
{"sequence": "TTATTTCTGAATATTTTTTTTTTTTCTTCTTTTTTA [CACACA_negctrl_site815]", "gcPBM binding intensity (ln)": 9.04}
{"sequence": "CATGTGTTCTATATTTATGTCTAACTTTTTAATTAA [CACACA_negctrl_site904]", "gcPBM binding intensity (ln)": 9.43}
{"sequence": "TAAATGTCTGTTAATGCACACGATATGTCTATATAT [CACACA_site2352]", "gcPBM binding intensity (ln)": 9.43}
{"sequence": "CTTTCTATATAAAATCGTACATATATAATATTATAT [XGTACX_site5807]", "gcPBM binding intensity (ln)": 9.08}
{"sequence": "TATATTAAGAAACACACACACATATATATATATATA [CACACA_site1609]", "gcPBM binding intensity (ln)": 9.63}
{"sequence": "TTCCTATTTCCTATGTGTACTTATAAATAAGTGTCT [XGTACX_site3725]", "gcPBM binding intensity (ln)": 9.38}
{"sequence": "GAAATTATAAATTGGACACACACATAAAAAATATGT [CACACA_site7957]", "gcPBM binding intensity (ln)": 9.78}
{"sequence": "TCCGCATGTACATGGGTGCACATAACACCCATTTAA [GTGCAC_site9881]", "gcPBM binding intensity (ln)": 9.11}
{"sequence": "GTAATTTTATATGGTTGTACATATATATATATATAT [XGTACX_site6659]", "gcPBM binding intensity (ln)": 9.32}
{"sequence": "TTATACCTGATTTAGGTGCTATAAATTTGTGTTTTT", "gcPBM binding intensity (ln)": 9.31}
{"sequence": "ATATATATATATATGTGTACTTATATATTTAAAAAA [XGTACX_site1761]", "gcPBM binding intensity (ln)": 9.07}
